{"source": "paper PMC4336329", "about": "(PLoS ONE, 2015)", "note": "Out of some 310,000 compounds screened, about 14,000 (4.5%) showed an effect of 50% or more. The effect is printed as a negative number. This is one part of the list.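 Also: peak tail current of the secondary pulse compared with the same well before compound.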"}
{"target": "human ether-à-go-go-related gene (hERG) potassium channel (human, UniProt Q12809)", "sequence (Q12809 whole entry, looked up)": "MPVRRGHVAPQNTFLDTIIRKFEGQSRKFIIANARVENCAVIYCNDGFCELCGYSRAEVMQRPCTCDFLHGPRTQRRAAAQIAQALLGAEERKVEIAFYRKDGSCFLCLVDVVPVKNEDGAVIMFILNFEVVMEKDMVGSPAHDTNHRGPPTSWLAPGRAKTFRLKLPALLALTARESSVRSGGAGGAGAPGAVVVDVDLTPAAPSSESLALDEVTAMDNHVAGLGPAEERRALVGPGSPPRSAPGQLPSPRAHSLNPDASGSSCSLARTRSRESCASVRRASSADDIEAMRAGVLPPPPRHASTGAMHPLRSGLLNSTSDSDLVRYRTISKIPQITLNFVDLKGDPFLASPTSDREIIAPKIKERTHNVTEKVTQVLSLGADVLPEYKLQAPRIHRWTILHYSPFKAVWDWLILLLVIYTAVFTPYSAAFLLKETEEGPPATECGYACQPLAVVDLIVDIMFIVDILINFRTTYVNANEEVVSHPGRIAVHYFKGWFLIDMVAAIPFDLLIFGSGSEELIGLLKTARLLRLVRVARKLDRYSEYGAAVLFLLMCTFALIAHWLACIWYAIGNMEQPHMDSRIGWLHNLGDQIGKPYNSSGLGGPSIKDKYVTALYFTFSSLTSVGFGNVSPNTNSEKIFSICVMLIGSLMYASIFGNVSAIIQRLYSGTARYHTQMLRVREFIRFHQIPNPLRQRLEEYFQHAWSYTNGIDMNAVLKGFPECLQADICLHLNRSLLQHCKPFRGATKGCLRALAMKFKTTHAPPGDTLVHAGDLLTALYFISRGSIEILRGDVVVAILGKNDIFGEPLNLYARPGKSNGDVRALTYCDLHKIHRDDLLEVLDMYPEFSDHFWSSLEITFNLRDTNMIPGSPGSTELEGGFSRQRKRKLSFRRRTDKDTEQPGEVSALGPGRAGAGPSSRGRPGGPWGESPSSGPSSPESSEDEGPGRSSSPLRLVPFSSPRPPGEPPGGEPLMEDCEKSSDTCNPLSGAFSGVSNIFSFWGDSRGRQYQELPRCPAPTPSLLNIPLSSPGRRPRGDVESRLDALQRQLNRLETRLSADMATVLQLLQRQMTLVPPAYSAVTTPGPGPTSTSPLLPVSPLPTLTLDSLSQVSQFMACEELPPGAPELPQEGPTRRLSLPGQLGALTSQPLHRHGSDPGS", "assay": "primary screen, population patch clamp on CHO cells stably expressing hERG", "units": {"hERG current change (%, negative = inhibition) at 10uM": "%"}}
{"smiles": "CCN(CC(=O)NCc1ccc(Cl)cc1)S(=O)(=O)c1ccc(F)cc1", "hERG current change (%, negative = inhibition) at 10uM": -19.1}
{"smiles": "CN1CCN(c2cc(=O)n(C3CCCCC3)c(=O)[nH]2)CC1", "hERG current change (%, negative = inhibition) at 10uM": -3.72}
{"smiles": "Cc1ccccc1OCC(=O)Nc1ccc(N2CCN(C)CC2)c(Cl)c1", "hERG current change (%, negative = inhibition) at 10uM": -68.8}
{"smiles": "COc1ccc(C(=O)Nc2ccc3c(c2)C(=O)N(C)C3=O)cc1OC", "hERG current change (%, negative = inhibition) at 10uM": 12.7}
{"smiles": "CCOC(=O)CSc1nc(C)c(C(=O)OCC)s1", "hERG current change (%, negative = inhibition) at 10uM": 4.86}
{"smiles": "CCCC(=O)NC(Nc1cccc(C(F)(F)F)c1)C(Cl)(Cl)Cl", "note": "(centres unmarked)", "hERG current change (%, negative = inhibition) at 10uM": -12.8}
{"smiles": "Cc1cc(=O)cc(C)n1-c1ccccc1N", "hERG current change (%, negative = inhibition) at 10uM": 18.5}
{"smiles": "COc1ccc(OCC(=O)Nc2c3c(nn2C(C)(C)C)CSC3)cc1", "hERG current change (%, negative = inhibition) at 10uM": -2.15}
{"smiles": "O=C(COC(=O)C1CC(=O)N(c2ccc3c(c2)OCCO3)C1)NC1CCCc2ccccc21", "note": "(centres unmarked)", "hERG current change (%, negative = inhibition) at 10uM": -9.6}
{"smiles": "CCc1ccc(NC(=O)c2cc(-c3ccc(F)cc3)on2)cc1", "hERG current change (%, negative = inhibition) at 10uM": 19.1}
{"smiles": "O=c1cc(O)c2sc3nc(C(F)(F)F)c4c(c3c2[nH]1)CCCCC4", "hERG current change (%, negative = inhibition) at 10uM": 1.82}
{"smiles": "CSc1ncc(Cl)c(C(=O)Nc2cccnc2)n1", "hERG current change (%, negative = inhibition) at 10uM": 18.3}
{"smiles": "COC(=O)C1=C(c2c(C)noc2C)C[C@@H]2CC[C@H]1N2C(=O)NCc1ccc(C(F)(F)F)cc1", "hERG current change (%, negative = inhibition) at 10uM": -26.5}
{"smiles": "O=C(O)Cn1cc(/C=c2/sc3nc4ccccc4n3c2=O)c2ccccc21", "hERG current change (%, negative = inhibition) at 10uM": 18.1}
{"smiles": "Cc1c(CC(=O)N[C@@H](C)C(=O)O)c(=O)oc2c(C)c3occ(-c4ccccc4)c3cc12", "hERG current change (%, negative = inhibition) at 10uM": 11.8}
{"smiles": "Br.O=C(Cn1c(NCCCO)nc2ccccc21)c1ccc(Cl)cc1", "hERG current change (%, negative = inhibition) at 10uM": -21}
{"smiles": "CCCOc1ccc(/C=C/C(=O)N2CCOCC2)cc1", "hERG current change (%, negative = inhibition) at 10uM": -1.67}
{"smiles": "C=CCNC(=O)CN(c1ccc(F)c(Cl)c1)S(C)(=O)=O", "hERG current change (%, negative = inhibition) at 10uM": 12.5}
{"smiles": "CC(Oc1ccc(-c2ccccc2)c(F)c1)c1ccn(S(=O)(=O)c2ccc(Cl)cc2)n1", "note": "(centres unmarked)", "hERG current change (%, negative = inhibition) at 10uM": 2.34}
{"smiles": "COc1ccc(CNC(=O)c2ccc(CS(=O)Cc3cccc(Cl)c3)o2)cc1", "note": "(centres unmarked)", "hERG current change (%, negative = inhibition) at 10uM": -37.5}
{"smiles": "CCOc1ccccc1/C=C/c1onc(C)c1S(=O)(=O)N1CCC(C(=O)N(CC)CC)CC1", "hERG current change (%, negative = inhibition) at 10uM": -3.33}
{"smiles": "CCOc1ccc(NC(=O)CN(C)C(=O)c2c(-c3c(F)cccc3Cl)noc2C)cc1OCC", "hERG current change (%, negative = inhibition) at 10uM": -3.83}
{"smiles": "CC(=O)c1ccc([N+](=O)[O-])c(CS(=O)(=O)c2ccc(Cl)cc2)c1", "hERG current change (%, negative = inhibition) at 10uM": 9.38}
{"smiles": "O=C(c1ccccc1F)N1CCCC(C(=O)N2CCN(c3ccccc3)CC2)C1", "note": "(centres unmarked)", "hERG current change (%, negative = inhibition) at 10uM": -2.72}
{"smiles": "CCOc1ccc(-n2c(=O)c3c(C)c(C(=O)N(C)C)sc3n(CC(=O)Nc3ccccc3F)c2=O)cc1", "hERG current change (%, negative = inhibition) at 10uM": 9.73}
{"smiles": "O=C1CSC(c2cccc(F)c2)N1c1c(F)cccc1F", "note": "(centres unmarked)", "hERG current change (%, negative = inhibition) at 10uM": -3.43}
{"smiles": "CCOC(=O)c1cnc2c(ccc3ccccc32)c1N", "hERG current change (%, negative = inhibition) at 10uM": 18.8}
{"smiles": "CCC(C)C(=O)Nc1cc(C(=O)OC)ccc1C(=O)OC", "note": "(centres unmarked)", "hERG current change (%, negative = inhibition) at 10uM": -25.5}
{"smiles": "CC(=O)Cn1cnc2sc(-c3ccccc3)cc2c1=O", "hERG current change (%, negative = inhibition) at 10uM": -13.2}
{"smiles": "O=c1cc(-c2ccccc2)cc(-c2ccccc2)n1CCCO", "hERG current change (%, negative = inhibition) at 10uM": -31.9}
{"smiles": "CCOC(=O)C(CC)Sc1nnc2cc(C)c3ccccc3n12", "note": "(centres unmarked)", "hERG current change (%, negative = inhibition) at 10uM": -38}
{"smiles": "CC(=O)Nc1ccc(S(=O)(=O)c2ccc(N)cc2)cc1", "hERG current change (%, negative = inhibition) at 10uM": -4}
{"smiles": "Cc1ccc(CN2CCN(Cc3cccn3-c3ccccn3)CC2CCO)o1", "note": "(centres unmarked)", "hERG current change (%, negative = inhibition) at 10uM": -66.1}
{"smiles": "CCN(CC(=O)NC1CCS(=O)(=O)C1)S(=O)(=O)c1ccc(C)cc1C", "note": "(centres unmarked)", "hERG current change (%, negative = inhibition) at 10uM": 12.5}
{"smiles": "COc1ccc(C(=O)/C=C/c2ccc(OCc3ccccc3)cc2)cc1CSCC(=O)O", "hERG current change (%, negative = inhibition) at 10uM": 0.138}
{"smiles": "Cn1c(NNC(=O)C(c2ccccc2)c2ccccc2)cc(=O)n(C)c1=O", "hERG current change (%, negative = inhibition) at 10uM": 26.9}
{"smiles": "CC(C)OC(=O)c1nn2c(C(F)(F)F)cc(-c3ccco3)nc2c1Cl", "hERG current change (%, negative = inhibition) at 10uM": 17.6}
{"smiles": "COc1ccc(CN(C)S(=O)(=O)c2nnc(NC(=O)c3cccc(F)c3)s2)cc1", "hERG current change (%, negative = inhibition) at 10uM": 13.5}
{"smiles": "Cc1ccc(CS(=O)(=O)Cc2ccc(C(=O)NCCCN3CC(C)CC(C)C3)o2)cc1", "note": "(centres unmarked)", "hERG current change (%, negative = inhibition) at 10uM": -60.2}
{"smiles": "CC1CCN(C(=O)CSc2nnc(CNc3ccc(F)cc3)n2Cc2ccco2)CC1", "hERG current change (%, negative = inhibition) at 10uM": -40.6}
{"smiles": "CC(=O)NC12CC3CC(C1)CC(C(=O)OCC(=O)c1ccc4c(c1)OCCO4)(C3)C2", "hERG current change (%, negative = inhibition) at 10uM": -0.5}
{"smiles": "O=C(CCCC(=O)N/N=C\\c1ccccn1)N/N=C\\c1ccccn1", "hERG current change (%, negative = inhibition) at 10uM": 2.44}
{"smiles": "CCOc1ccc(N=C(NC#N)SCC)cc1", "hERG current change (%, negative = inhibition) at 10uM": -7.27}
{"smiles": "COc1cc(C2NC(=O)CCC2[N+](=O)[O-])c(OC)cc1Br", "note": "(centres unmarked)", "hERG current change (%, negative = inhibition) at 10uM": 31.7}
